According to PubChem BioAssay AID1645882 (National Center for Advancing Translational Sciences (NCATS), 2021):
Out of some 16,000 compounds screened, about 120 (0.75%) were called active. About 4% were inconclusive and are not listed. Calls follow the shape of the dose curve; as a rule, active = well fitted inhibition curve with a large enough effect; inconclusive = small, poorly fitted or top-dose-only effect; inactive = no such curve, though single readings can be large or run the other way. Some of the results follow.

Biological target: Rap guanine nucleotide exchange factor 3 (Homo sapiens) (UniProt O95398)
UniProt O95398, sequence (O95398 whole entry, looked up): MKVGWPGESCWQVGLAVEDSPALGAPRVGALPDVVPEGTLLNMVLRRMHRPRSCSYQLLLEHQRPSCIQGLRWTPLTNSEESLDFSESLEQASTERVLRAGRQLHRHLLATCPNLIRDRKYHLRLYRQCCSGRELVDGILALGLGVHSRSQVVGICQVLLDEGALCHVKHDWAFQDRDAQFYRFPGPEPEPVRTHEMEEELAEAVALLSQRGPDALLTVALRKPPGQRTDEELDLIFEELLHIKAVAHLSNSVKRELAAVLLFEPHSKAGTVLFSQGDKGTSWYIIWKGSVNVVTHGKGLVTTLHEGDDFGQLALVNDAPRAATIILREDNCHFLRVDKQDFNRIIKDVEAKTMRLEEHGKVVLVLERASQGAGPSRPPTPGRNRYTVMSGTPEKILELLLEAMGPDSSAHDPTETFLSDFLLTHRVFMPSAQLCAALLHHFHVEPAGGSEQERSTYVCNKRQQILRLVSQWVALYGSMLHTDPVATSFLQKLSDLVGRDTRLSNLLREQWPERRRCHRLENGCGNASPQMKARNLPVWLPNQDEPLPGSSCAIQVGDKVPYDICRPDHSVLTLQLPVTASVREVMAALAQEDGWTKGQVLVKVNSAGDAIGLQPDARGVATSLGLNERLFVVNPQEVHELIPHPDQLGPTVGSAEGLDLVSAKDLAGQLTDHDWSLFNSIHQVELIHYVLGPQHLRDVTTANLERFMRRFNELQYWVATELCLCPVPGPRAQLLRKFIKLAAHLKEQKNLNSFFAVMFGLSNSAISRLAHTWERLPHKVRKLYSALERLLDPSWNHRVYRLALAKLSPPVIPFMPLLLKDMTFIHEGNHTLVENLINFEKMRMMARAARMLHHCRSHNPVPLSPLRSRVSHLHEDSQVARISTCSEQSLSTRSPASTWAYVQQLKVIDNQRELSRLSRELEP
Experiment: Validation qHTS for antagonist of cAMP-regulated guanine nucleotide exchange factor 3 (EPAC1);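 also: plate controls were DMSO for no effect and ATA control for full effect; nearly all actives have a fitted effect of over 75% in size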
Settings: EPAC1 Rap1B-BODIPY-GDP exchange, fluorescence; series mostly up to 150 µM; activity change, negative = inhibition: at the top concentration
Method in brief: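 Nucleotide exchange followed as fluorescence loss when BODIPY-GDP leaves Rap1B (480 nm excitation, 540 nm emission), read at 5 min intervals over 30 min. Reaction: 100 nM EPAC1, 250 nM RAP1B-BODIPY-GDP, 50 uM GDP; ATA and DMSO define normalization.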

Activity change, negative = inhibition, inactive:
COc1c(OC)c2occc2c2oc(=O)ccc12 10.9%
C=CCN1CCCC1CNC(=O)c1cc(S(N)(=O)=O)cc(OC)c1OC (centres undefined) 8.39%
Cc1nc(NCc2cnn(C)c2C)sc1-c1ccn(CC2COc3ccccc3O2)n1 (centres undefined) 12.6%
Cn1cccc1C(=O)N1CCC[C@@]2(CCN(c3ccccc3)C2)C1 23.8%
OC1OC[C@@H](O)[C@H](O)[C@@H]1O (some centres undefined) 15.9%
N#Cc1ccc(CN2CCCC3(CCNCC3)C2)cc1 10.9%
O=C(NCC1CCC2(CCN(Cc3ccccc3O)CC2)O1)C1CCCO1 (centres undefined) 11.7%
O=C(O)c1cc(O)c(O)c(O)c1
CC(C)=CCc1c(O)cc(C)oc1=O 4.52%
Nc1ccc(N=Nc2ccccc2)c(N)n1
CCN(CC)C(=O)N1CCN(C)CC1
C/C=C1\C2C=C(C)C[C@@]1(N)c1ccc(=O)[nH]c1C2 12.1%
O=C1CCN(Cc2ccc([N+](=O)[O-])cc2)CCN1[C@H](CO)c1ccccc1 2.48%
COc1ccc(-n2c(=O)c(-c3cccs3)nc3cnc(N4CCNCC4)nc32)cc1 15.4%
COc1ccccc1-c1ccnc(-n2ncc(C(=O)NC(C)(C)CO)c2C2CC2)n1 3.03%
O=C(c1cnccn1)N1CCC2(CCCN(c3cccc(-c4ccccc4)c3)C2)CC1 12.2%
CCCCC#Cc1nc(NC)c2ncn([C@@H]3O[C@H](CO)[C@@H](O)[C@H]3O)c2n1 -0.318% [at 75.8 µM]
Cn1c2ccccc2c(=O)c2ccc(F)cc21 -12.9%
C[C@@H](CSc1ccc(Br)cc1)CN1CC[C@H](O)CCC1=O 11.7%
O=C(O)[C@@H]1C[C@H](CP(=O)(O)O)CCN1 8.63%
CC1=CC2C(=O)c3cccc(O)c3C(=O)C2C(O)=C1 (centres undefined) 6.3%
O=P(O)(O)C(O)(Cc1cccnc1)P(=O)(O)O 21.3%
CC1O[C@@H](Oc2c(-c3ccc(O)c(O)c3)oc3cc(O)cc(O)c3c2=O)C(O)C(O)C1O (some centres undefined) 11%
COc1ccc(Oc2ncc3nc(-c4ccc(F)cc4)c(=O)n(C4CC4)c3n2)cc1 -0.125%
N[C@@H](Cc1ccc(F)cc1)C(=O)O -9.15% [at 75.8 µM]
O=C(Oc1ccccc1)N1CCC2(CCCN(c3ccccn3)C2)CC1 4.01%
CCN(CCCc1ccccc1)CCCc1ccccc1
CN(C)Cc1ccccc1-c1nccc(NC2CC2)n1 18.5%
Cc1c(C)c2c(c(C)c1O)CC[C@@](C)(CCC[C@H](C)CCC[C@H](C)CCCC(C)C)O2
O=C(CCN1CCN2CCCC2C1)N1c2ccccc2Sc2ccc(Cl)cc21 (centres undefined) 13.6%
O=C(O)CCC(=O)C(=O)O (tested in a mixture with another compound) 16%
CCOC(=O)c1c(C)cc(O)c(C)c1O 6.88%
CC(CCc1ccc(O)cc1)NCC(O)c1ccc(O)cc1 (centres undefined) 18.6%
O=[N+]([O-])c1ccc(Oc2ccc(N=C=S)cc2)cc1 -23.1%
CC[C@]1(O)C[C@@H]2CN(CCc3c([nH]c4ccccc34)[C@@](C(=O)OC)(c3cc4c(cc3OC)N(C)[C@H]3[C@@](O)(C(=O)OC)[C@H](OC(C)=O)[C@]5(CC)C=CCN6CC[C@]43[C@@H]65)C2)C1
CN(C)CCOC(c1ccccc1)c1ccccc1 (tested in a mixture with another compound) 20.4%
C=C(C)C1CC=C(C)CC1 (centres undefined) 14.7%
Cn1cnc2c(NC3CCCC3)ncnc21 24.7%
CC/C(=C\c1ccccc1)c1cccc2oc3ccccc3c12 8.02%
CC(C)(C)C(O)/C=C/c1ccc2c(c1)OCO2 (centres undefined) 31.6%
Nc1cc(N2CCCCC2)nc(N)[n+]1OS(=O)(=O)[O-]
C[C@@H]1CC[C@@]2(OC1)OC1CC3C4CC=C5CC(O)CCC5(C)C4CCC3(C)C1[C@@H]2C (some centres undefined) 8.3%
COc1ccc(CNc2ccnc(-c3ccccc3C(F)(F)F)n2)c(OC)c1 -5.59%
COc1c(O)cc2c(c1O)C1OC(CO)C(O)[C@H](O)[C@H]1OC2=O (some centres undefined) 1.03%
CCn1c(-c2ccccc2F)nc2cc(NC(C)=O)cc(C(=O)NCc3ncc(C)[nH]3)c21 3.7%
COc1cc(=O)n2c(c1C(=O)NCc1ccco1)CCN(Cc1c(F)cccc1F)CC2 13.9%
C[N+]1(C)CC(O)[C@H](C(=O)[O-])C1 (some centres undefined) 25.6%
Clc1ccc2nc[nH]c2c1 28.5%
COc1cc(-c2noc(C)c2C#CCO)cc(OC)c1OC 13%
O[C@@H]1CO[C@H]2[C@@H]1OC[C@@H]2O 18.5%
Cc1cc(-n2nc3ccc(Cl)cc3n2)c(O)c(C(C)(C)C)c1 4.91%
O=C([C@@H]1C[C@@H](Sc2nc3ccccc3[nH]2)CN1Cc1ccc(Cl)cc1)N1CCN(c2ccccc2F)CC1 9.89%
COc1ccc(C(=O)N2CCC3(CCCN(Cc4nccs4)C3)CC2)cc1 11.5%
COC1=C(OC)C(=O)c2ccccc2C1=O 3.08% [at 75.8 µM]
CS(=O)(=O)N1CCC2(CC1)CN(c1ccccn1)C2 20.9%
Oc1cc(-c2nc3ccccc3s2)cc2c1OCCN(Cc1cn[nH]c1-c1ccc(Cl)cc1)C2 4.53%
N#Cc1ccccc1-c1ccc2ncnc(NCc3cccs3)c2c1 20.9%
CC(C)C[C@@H](CN=[N+]=[N-])N1CCN(C)CCC1=O -6.63%
COc1cccc(Cn2c(=O)cnc3cnc(N4CCOCC4)nc32)c1 9.57%
O=C(c1cccc(F)c1)N1CCC2(CC1)CCN(c1ccccn1)CC2 13.7%
COCCn1c(=O)c(-c2ccc(Cl)cc2)nc2cnc(Oc3ccc(OC)cc3)nc21 0.9%
COc1ncc2nc(C)c(=O)n(Cc3ccc(F)cc3)c2n1 13.2%
Cc1cnc(CNc2ncnc3ccc(-c4cccc(C#N)c4)cc23)cn1 17.4%
OCC1OC(n2cnc3c(Cl)nc(Cl)nc32)C(O)C1O (centres undefined) 14.6%
CNc1ncncc1-c1ccccc1CN(C)C 11.8%
CC(=O)c1ccc(-c2cc(F)cc3c2OC(CNC(=O)C(C)N2CCOCC2)C3)s1 (centres undefined) 7.38%
CCCCCC1C(=O)CCC1CC(=O)O (centres undefined) 17.8%
CC(C)CCC[C@@H](C)[C@H]1CC[C@H]2[C@@H]3CC=C4C[C@@H](O)CC[C@]4(C)[C@H]3CC[C@]12C 16.4%
CC(C)C[C@H](NC(=O)[C@H](Cc1ccccc1)NC(=O)CNC(=O)CNC(=O)[C@@H](N)Cc1ccc(O)cc1)C(=O)N[C@@H](CCCN=C(N)N)C(=O)N[C@@H](CCCN=C(N)N)C(=O)N[C@@H](CCC(N)=O)C(=O)N[C@@H](Cc1ccccc1)C(=O)N[C@@H](CCCCN)C(=O)N[C@H](C(=O)N[C@H](C(=O)N[C@H](C(=O)O)[C@@H](C)O)C(C)C)C(C)C 8.64% [at 15.3 µM]
